According to PubChem BioAssay AID1476 (National Center for Advancing Translational Sciences (NCATS), 2009):
The campaign covered roughly 200,000 compounds. About 4,500 (2.2%) were called active. Inconclusive results, whose numbers are uncertain, are shown with a selection of clear calls. Calls follow the shape of the dose curve; as a rule, active = well fitted inhibition curve with a large enough effect; inconclusive = small, poorly fitted or top-dose-only effect, or effect the other way; inactive = flat fitted curve, though single readings scatter. Potencies beside an inconclusive call are fits to weak or partial responses and may not hold up.

Target: Cruzipain (Trypanosoma cruzi) (UniProt P25779)
Sequence of UniProt P25779 (P25779 whole entry, looked up): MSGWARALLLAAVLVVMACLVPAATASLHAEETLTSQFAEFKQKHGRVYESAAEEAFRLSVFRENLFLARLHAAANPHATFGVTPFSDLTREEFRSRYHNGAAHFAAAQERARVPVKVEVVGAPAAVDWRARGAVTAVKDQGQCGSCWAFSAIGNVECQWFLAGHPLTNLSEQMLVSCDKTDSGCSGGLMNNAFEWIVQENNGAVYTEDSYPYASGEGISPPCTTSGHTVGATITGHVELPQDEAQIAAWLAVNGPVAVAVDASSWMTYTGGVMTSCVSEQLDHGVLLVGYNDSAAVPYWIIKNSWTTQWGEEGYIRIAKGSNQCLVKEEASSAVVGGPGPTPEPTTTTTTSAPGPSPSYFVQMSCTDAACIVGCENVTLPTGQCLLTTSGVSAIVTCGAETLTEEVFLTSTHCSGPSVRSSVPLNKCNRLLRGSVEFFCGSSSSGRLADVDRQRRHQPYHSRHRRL
Experiment: qHTS Assay for Promiscuous and Specific Inhibitors of Cruzain (without detergent); also: nearly all actives have a fitted effect of over 40% in size;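 as to max response, negative = inhibition: plate controls were enzyme without inhibitor for no effect and buffer without enzyme for full effect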
Settings: purified cruzain, Z-FR-AMC fluorescence, no detergent
In short: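 Purified cruzain at 1.5 nM, pre-incubated 15 min with compound at room temperature in 100 mM sodium acetate pH 5.5, 5 mM DTT, 0.00005% Triton X-100. Reaction started with 2 uM Z-FR-AMC; AMC fluorescence increase over 60 s gives rate.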
Potency is read from the fitted curve at half-maximal effect; tags tell the direction and shape of the fitted curve.

SMILES	max response, negative = inhibition	Potency
Cc1cc(C)c2oc(C(=O)Nc3sc4c(c3C(=O)NCc3ccco3)CCCC4)cc(=O)c2c1	inactive: -8.96%	
O=C(Nc1nnc(-c2ccccc2)s1)c1cccc(S(=O)(=O)N2CCOCC2)c1		inconclusive: 31.6 µM [activator, single point]
CCc1cccc(NC(=O)CCc2c(C)nc3c(c2C)c(=O)n(C)c(=O)n3C)c1	inactive: 5.21%	
CCOc1ccc(C(c2c(O)cc(C)n(CCOC)c2=O)N2CCN(c3ccccc3F)CC2)cc1 (stereo not given)		inconclusive: 3.16 µM [activator, partial curve, poor fit]
O=C(Cn1nnc2ccccc2c1=O)NC1CCCc2ccccc21 (stereo not given)		inconclusive: 31.6 µM [inhibitor, single point]
COc1ccc(S(=O)(=O)Nc2ccc3c(c2)OCO3)cc1OC		inconclusive: 39.8 µM [inhibitor, single point]
CC(=O)C1=C(O)C(=O)N(c2cccc(C(=O)O)c2)C1c1ccccc1F (stereo not given)	inactive: -4.52%	
O=C(CCN1C(=O)/C(=C/c2cccc(Br)c2)SC1=S)NNC(=O)c1cccnc1		inconclusive: 39.8 µM [inhibitor, single point]
O=c1cc(N2CCNCC2)oc2c(-c3ccccc3)cccc12	inactive: -5.92%	
O=C1c2ccccc2C(=O)c2c1ccc1c(=O)n(C3CCCCC3)[nH]c21		inconclusive: 10 µM [inhibitor, partial curve, poor fit]
N=C1S/C(=C\c2ccccc2F)C(=O)N1c1ccc(F)cc1		inconclusive: 39.8 µM [inhibitor, single point]
Cc1c(NC(=O)c2nn3c(C(F)(F)F)cc(-c4ccccc4)nc3c2Cl)c(=O)n(-c2ccccc2)n1C		inconclusive: 39.8 µM [activator, single point]
CCOc1cc(N2CCOCC2)c(OCC)cc1NC(=O)CCC1CCCC1		inconclusive: 31.6 µM [activator, single point]
CCOc1cc(N2CCOCC2)c(OCC)cc1NC(=O)c1cc(-c2ccco2)nc2ccccc12		inconclusive: 25.1 µM [activator, partial curve]
O=C(Nc1ccc2nc(SCCOc3ccccc3Cl)sc2c1)c1cccs1		inconclusive: 31.6 µM [inhibitor, single point]
Cc1ccc(-c2cn3cccnc3n2)cc1NC(=O)c1cccs1		inconclusive: 31.6 µM [activator, single point]
CCOC(=O)c1cc(-c2ccc(OC)c(S(=O)(=O)Nc3ccc(OC)cc3OC)c2)on1		inconclusive: 39.8 µM [activator, single point]
COc1ccccc1-c1nnc(SCCOc2ccccc2C)o1		inconclusive: 31.6 µM [activator, single point]
CC(C)(C)NC(=O)CN(C(=O)CS(=O)CC(=O)Nc1ccc(F)cc1)c1ccc(F)c(Cl)c1 (stereo not given)		inconclusive: 39.8 µM [activator, single point]
Cc1ccccc1OCc1nnc(SCC(=O)N2c3ccccc3Sc3ccc(Cl)cc32)o1		active: 12.6 µM

SMILES	max response, negative = inhibition	Potency
O=C(Nc1cccc2ccccc12)c1cn(-c2ccccc2)nc1-c1cccs1		inconclusive: 31.6 µM [inhibitor, single point]
COc1ccc(C(=O)c2sc(Nc3cccc(OC)c3)c(C(=O)Nc3cccc(C)c3C)c2N)cc1		active: 6.31 µM
Cc1nc(SCC(=O)c2c(C)[nH]c3ccccc23)c2c(=O)n(C)c(=O)n(CC(C)C)c2n1		inconclusive: 31.6 µM [activator, partial curve]
CCOC(=O)c1c(Oc2ccc(OC)cc2)nnc(-c2ccccc2)c1-c1ccccc1		inconclusive: 15.8 µM [inhibitor, single point]
CCC(C)c1ccc2oc(-c3ccc(NC(=O)c4ncn[nH]4)cc3)nc2c1 (stereo not given)		active: 3.98 µM
COc1ccccc1NS(=O)(=O)c1cc(NC(=O)c2cccs2)ccc1N1CCCCC1		active: 10 µM
COc1ccc(CC(=O)NCc2ccc3c(c2)CCN3C(=O)c2ccc(Cl)cc2)cc1OC		inconclusive: 39.8 µM [activator, single point]
Cc1ccc(CC(=O)N2CCN(c3cccc(C(F)(F)F)c3)CC2)cc1		inconclusive: 25.1 µM [activator, single point]
CCOC(=O)c1ccc(N2C(=O)c3n[nH]c(-c4cccs4)c3C2c2ccc(C(C)C)cc2)cc1 (stereo not given)		inconclusive: 6.31 µM [inhibitor, single point]
CCOCCCn1c(SCC(=O)Nc2cc(C(C)(C)C)nn2-c2ccccc2)nc2ccccc2c1=O		inconclusive: 39.8 µM [activator, single point]
Cc1c(C(=O)c2cccc3ccccc23)c2cccc3c2n1[C@@H](CN1CCOCC1)CO3		inconclusive: 28.2 µM [activator, single point]
COc1cc2c(cc1NC(=O)C(C)Sc1nc3ccccc3n1C)oc1ccccc12 (stereo not given)		active: 25.1 µM
Cc1cnc(CNc2ncnc3ccc(-c4ccccc4C(F)(F)F)cc23)cn1		inconclusive: 20 µM [activator, single point]
C=CCN(CC=C)S(=O)(=O)c1ccc(NC(=S)NC(=O)/C=C/c2cccc3ccccc23)cc1		active: 3.98 µM
Cc1nc2cnc(OCc3ccccc3)nc2n(CCc2ccccc2)c1=O		inconclusive: 39.8 µM [activator, single point]
CCS(=O)(=O)c1ncc(Cl)c(C(=O)N2CCN(c3cccc(Cl)c3)CC2)n1	inactive: 11.2%	
COc1ccc(Nc2cc(C(=O)NCc3ccco3)c3ccccc3n2)cc1		active: 12.6 µM
N#Cc1ccccc1CN1C(=O)S/C(=C/c2cccn2-c2cccc(C(=O)O)c2)C1=O		inconclusive: 20 µM [activator, single point]
CCc1cc2cc3c(cc2nc1SCC(=O)Nc1cc(C)on1)OCO3		active: 25.1 µM
COc1ccc(NC(=O)Nc2sc3nc4n(c(=O)c3c2C)CCC(C)CC4)cc1OC (stereo not given)		inconclusive: 25.1 µM [activator, partial curve]
